Assay results published in PubChem BioAssay AID1476 (National Center for Advancing Translational Sciences (NCATS), 2009).
“And” between values parts separate entries of the source, which are not always exact repeats. Equal entries are not always repeated. Out of some 200,000 compounds screened, about 4,500 (2.2%) were called active. Inconclusive means that the source gave no clear call. Such entries were picked first, then a sample of the others. The call rests on the fitted dose curve; in most records, active means well fitted inhibition curve with a large enough effect; inconclusive means small, poorly fitted or top-dose-only effect, or effect the other way; inactive means flat fitted curve, though single readings scatter. A potency beside an inconclusive call is a rough fit, not a confirmed value.
Further: nearly all actives have a fitted effect of over 40% in size.
Potency means the concentration at half of the fitted maximal effect; tags describe the fitted curve by direction and shape.
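Wherever max response, negative = inhibition is given: plate controls were enzyme without inhibitor for no effect and buffer without enzyme for full effect.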

Each molecule was assayed against Cruzipain (Trypanosoma cruzi) (UniProt P25779) (assay: qHTS Assay for Promiscuous and Specific Inhibitors of Cruzain (without detergent)). Details: purified cruzain, Z-FR-AMC fluorescence, no detergent.
Sequence of UniProt P25779 (P25779 whole entry, looked up): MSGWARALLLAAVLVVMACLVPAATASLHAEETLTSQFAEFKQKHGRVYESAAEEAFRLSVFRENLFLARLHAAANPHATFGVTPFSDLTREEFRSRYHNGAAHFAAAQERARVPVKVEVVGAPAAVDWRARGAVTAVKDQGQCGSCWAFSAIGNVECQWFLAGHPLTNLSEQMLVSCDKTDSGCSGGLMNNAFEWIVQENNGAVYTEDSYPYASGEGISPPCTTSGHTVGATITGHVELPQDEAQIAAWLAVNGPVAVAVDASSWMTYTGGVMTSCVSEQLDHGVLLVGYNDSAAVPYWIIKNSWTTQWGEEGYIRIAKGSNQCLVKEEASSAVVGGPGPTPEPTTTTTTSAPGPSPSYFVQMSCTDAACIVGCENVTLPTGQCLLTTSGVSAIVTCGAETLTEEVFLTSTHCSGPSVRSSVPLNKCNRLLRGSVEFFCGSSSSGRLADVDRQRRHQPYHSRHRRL
In short: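 Purified cruzain at 1.5 nM, pre-incubated 15 min with compound at room temperature in 100 mM sodium acetate pH 5.5, 5 mM DTT, 0.00005% Triton X-100. Reaction started with 2 uM Z-FR-AMC; AMC fluorescence increase over 60 s gives rate.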
`Cc1cccc(S(=O)(=O)C(C#N)c2nc3ccccc3nc2N2CCOCC2)c1` (centres undefined) was tested, and the Potency was inconclusive: 39.8 µM [activator, single point].
With `N#CC1=C(N)OC2=C(CC/C2=C\c2ccccc2Cl)C1c1ccccc1Cl` (centres undefined) the Potency was inconclusive: 31.6 µM [inhibitor, single point].
`Cc1ccc(N(Cc2ccc(C(=O)NC3CCCCC3)cc2)S(C)(=O)=O)cc1C` was tested, and the max response, negative = inhibition was inactive: -10.2%.
For `COc1cccc(C(=O)Nc2ccc(C(=O)OCc3cc(=O)n4cc(C)sc4n3)cc2)c1`, the max response, negative = inhibition was inactive: -4.54%.
With `COCCCNC(=O)C1CCN(C(=O)c2cc3sccc3n2Cc2ccc(Cl)cc2)CC1` the Potency was inconclusive: 20 µM [activator, partial curve].
`Cc1cccc(CSc2ccc3nnc(CCNS(=O)(=O)c4ccccc4)n3n2)c1` was tested, and the Potency was inconclusive: 39.8 µM [activator, single point].
With `CCOC(=O)C(NC(=O)CC)(Nc1ccc(C(O)(C(=O)OCC)C(F)(F)F)cc1C)C(F)(F)F` (centres undefined) the Potency was inconclusive: 15.8 µM [activator, partial curve].
For `CC1CCCN(C(=O)c2ccc3c(c2NCCO)C(=O)c2ccccc2C3=O)C1` (centres undefined), the Potency was inconclusive: 39.8 µM [activator, single point].
With `COc1ccc(CCNC(=O)c2ccc(CSCc3ccc(C)cc3)o2)cc1OC` the Potency was inconclusive: 31.6 µM [activator, single point].
`Cc1occc1C(=O)N/N=C/C1=C(N2CCOCC2)C(=C\c2ccc(Cl)cc2Cl)/CC1` was tested, and the Potency was active: 25.1 µM.
`Fc1ccc(Nc2c(-c3c[nH]c4ccccc34)nc3ccccn23)cc1` was tested, and the max response, negative = inhibition was inactive: 6.3%.
With `COc1ccc2nc3c(cc2c1)Cc1ccccc1-3` the max response, negative = inhibition was inactive: 13.6%.
With `Cc1cc(C)c2nc(C(F)(F)F)nc(N3CCN(C(=O)c4ccco4)CC3)c2c1` the Potency was inconclusive: 25.1 µM [activator, single point].
In the case of `COC(=O)c1sc(NC(=O)c2csc3c2CCCC3)nc1C`, the Potency is reported as inconclusive: 31.6 µM [inhibitor, partial curve].
For `N#Cc1c(NC(=O)CSc2nc3ccccc3s2)sc2c1CCCC2`, the Potency was inconclusive: 31.6 µM [inhibitor, single point].
For `COc1ccccc1NS(=O)(=O)c1cc(NC(=O)Nc2ccc(Cl)cc2Cl)ccc1N1CCCCC1`, the Potency was active: 5.01 µM.
In the case of `O=C(CSc1ncc2c(n1)-c1cc(Cl)ccc1N(Cc1ccccc1)S2(=O)=O)NCc1ccccc1`, the Potency is reported as active: 15.8 µM.
In the case of `Cc1ccc(C)c(N2CCN(C(=O)c3cccn4c(=O)c5ccccc5nc34)CC2)c1`, the Potency is reported as inconclusive: 39.8 µM [activator, single point].
With `Cc1cccc(-n2nc(C(=O)Nc3ccccc3)n3c(=O)cc(-c4ccccc4)nc23)c1` the Potency was active: 7.94 µM.
For `CCCCOc1ccc(C(C)NC(=O)CCS(=O)(=O)Cc2ccc(Cl)cc2)cc1` (centres undefined), the Potency was inconclusive: 39.8 µM [inhibitor, single point].
`O=C(NCc1ccccc1)c1cc(-c2ccncc2)nc2ccc(S(=O)(=O)N3CCOCC3)cc12` was tested, and the Potency was inconclusive: 6.31 µM [activator, single point].
`Cc1cc(C)c2c(N)c(C(=O)NN3CC(=O)N(c4ccccc4F)CC3=O)sc2n1` was tested, and the Potency was inconclusive: 31.6 µM [activator, single point].
In the case of `COc1cccc(NC(=O)CSc2nc3ccccc3c3nc4ccccc4n23)c1`, the Potency is reported as inconclusive: 25.1 µM [inhibitor, single point].
`Cc1cccc(C)c1OCC(=O)Nc1c(C(=O)c2ccccc2)oc2ccccc12` was tested, and the Potency was inconclusive: 3.16 µM [inhibitor, partial curve].
`O=C(CN(Cc1cccs1)S(=O)(=O)c1ccc(S(=O)(=O)N2CCCCC2)cc1)Nc1ccccc1` was tested, and the Potency was inconclusive: 39.8 µM [inhibitor, single point].
In the case of `CCN1CCN(C(=O)c2ccc3c(c2)N(Cc2ccc(Cl)cc2)C(=O)c2ccccc2S3=O)CC1` (centres undefined), the max response, negative = inhibition is reported as inactive: -8.88%.
`O=S(=O)(O)c1cc(N=C=S)ccc1/C=C/c1ccc(N=C=S)cc1S(=O)(=O)O` was tested, and the max response, negative = inhibition was inactive: -17.1%.
`Cc1cc(C)c(NC(=O)CSc2cn(CC(=O)N3CCOCC3)c3ccccc23)c(C)c1` was tested, and the Potency was inconclusive: 39.8 µM [activator, single point].
`C=CCn1c(N)c(C(=O)Nc2ccccc2)c2nc3ccccc3nc21` was tested, and the Potency was inconclusive: 31.6 µM [activator, single point].
In the case of `Cc1cc(C)c(NC(=O)CN2C(=O)CCn3nc(-c4cccn4C)cc32)c(C)c1`, the Potency is reported as inconclusive: 39.8 µM [activator, single point].
With `CCNc1ncc2nc(-c3cccc(C#N)c3)c(=O)n(C)c2n1` the Potency was inconclusive: 3.98 µM [activator, partial curve, poor fit].
In the case of `Cc1ccccc1CN1c2ccccc2-c2nc(SCC(=O)Nc3cc(F)ccc3F)ncc2S1(=O)=O`, the max response, negative = inhibition is reported as inactive: -1.74%.
`O=C(Cc1ccc(NC(=O)N2CCCCc3ccccc32)cc1)Nc1ccccc1Br` was tested, and the Potency was inconclusive: 39.8 µM [inhibitor, single point].
For `CCOC(=O)c1ccc(NC(=O)COc2cc(=O)n(CC)c3ccccc23)cc1`, the Potency was inconclusive: 31.6 µM [inhibitor, single point].
For `CCOc1cc(-c2ccc(OC(=O)c3ccc(Cl)cc3)c(OC)c2)cc(=O)c2c(C)oc(C)c12`, the Potency was inconclusive: 39.8 µM [activator, single point].
With `COc1ccc(-n2nc(C(=O)NCc3ccco3)c3c4ccccc4n(C)c3c2=O)cc1` the Potency was inconclusive: 12.6 µM [activator, partial curve].
`C=CCn1c(=O)c(C(=O)Nc2cccnc2)c(O)c2ccccc21` was tested, and the Potency was inconclusive: 39.8 µM [activator, single point].
For `CC(=O)c1ccc(N2CCN(c3ncnc4onc(-c5ccc(Cl)cc5)c34)CC2)cc1`, the Potency was active: 3.16 µM.
With `O=C(O)Cc1ccc([N+](=O)[O-])cc1[N+](=O)[O-]` the max response, negative = inhibition was inactive: -12%.
In the case of `O=C(COC(=O)Cc1ccc(Cl)cc1)Nc1cc(S(=O)(=O)N2CCOCC2)ccc1N1CCCC1`, the Potency is reported as inconclusive: 31.6 µM [activator, single point].
`Cc1ccc(-c2nc3ccccc3[nH]2)cc1N` was tested, and the max response, negative = inhibition was inactive: 0.934%.
In the case of `CCNc1ncc2nc(-c3ccc(Cl)cc3)c(=O)n(Cc3cccc(OC)c3)c2n1`, the max response, negative = inhibition is reported as inactive: -7.71%.
`COc1ccc(CCNC(=O)CSc2nnc(CNc3ccc(Cl)cc3)o2)cc1OC` was tested, and the Potency was inconclusive: 39.8 µM [activator, single point].
`Cc1ccc(CSc2nnc(-c3cccc(S(=O)(=O)N4CCOCC4)c3)n2C2CCCC2)cc1` was tested, and the Potency was inconclusive: 31.6 µM [activator, single point].
With `Cc1ccc(-n2nc3ccc(NC(=O)/C=C/c4ccco4)cc3n2)cc1` the Potency was active: 15.8 µM.
With `CCOC(=O)c1cccc(Nc2nc(C(=O)OCC)nc3ccccc23)c1` the Potency was inconclusive: 39.8 µM [activator, single point].
For `Cc1cccc(-c2nc(N3CCN(c4ccc(F)cc4)CC3)c3ccccc3n2)c1`, the max response, negative = inhibition was inactive: 3.89%.
`CCOC(=O)c1cccc(NC(=O)c2cc3c(=O)n(Cc4cccnc4)ccc3nc2C)c1` was tested, and the Potency was inconclusive: 39.8 µM [activator, single point].
`CCCOc1ccc(NC(=O)CC2C(=O)N(c3cccc(C)c3)C(=O)N2CCc2ccncc2)cc1` (centres undefined) was tested, and the Potency was inconclusive: 39.8 µM [activator, single point].
`CN1CCN(Cc2c(O)ccc3cc(-c4ccccc4)c(=O)oc23)CC1` was tested, and the Potency was inconclusive: 31.6 µM [inhibitor, single point].
For `OCCNCCCOc1cccc(Cl)c1Cl`, the max response, negative = inhibition was inactive: -11.2%.
With `COCCNC(=O)c1ccccc1NC(=O)COc1ccccc1` the max response, negative = inhibition was inactive: -6.68%.
In the case of `CCCCOc1ccccc1NC(=O)Cn1c(-c2cncs2)nc2ccccc21`, the max response, negative = inhibition is reported as inactive: 23.4%.
`CC(C)CN(C(=O)COC(=O)C1c2ccccc2Oc2ccccc21)C1CCS(=O)(=O)C1` (centres undefined) was tested, and the Potency was inconclusive: 31.6 µM [activator, partial curve].
With `CCCN(Cc1cccs1)C(=O)Nc1ccc(Br)c(C)c1` the max response, negative = inhibition was inactive: -2.22%.
`O=C(NCc1ccccc1)c1cc(-c2ccco2)on1` was tested, and the Potency was inconclusive: 31.6 µM [inhibitor, single point].
With `Cc1cccc(NS(=O)(=O)c2ccc(Cl)c(C(=O)Nc3ccccc3C)c2)c1` the max response, negative = inhibition was inactive: 0.976%.
For `COc1ccc(CCNC(=O)CSc2nc3ccccc3nc2Cc2ccc(Cl)cc2)cc1OC`, the Potency was inconclusive: 25.1 µM [inhibitor, single point].
`CCC(Sc1nc2c(cnn2-c2ccc(Cl)cc2)c(=O)[nH]1)C(=O)OC` (centres undefined) was tested, and the Potency was inconclusive: 31.6 µM [inhibitor, partial curve, poor fit].
`COC(=O)c1c(NC(=O)C2SC(=NC3CCCCC3)C(C(N)=O)=C2N)sc2c1CCCC2` (centres undefined) was tested, and the Potency was active: 7.94 µM.
`CCN(CC)S(=O)(=O)c1ccc(C(=O)OCC(=O)Nc2sc3c(c2C#N)CCCCC3)cc1` was tested, and the Potency was inconclusive: 39.8 µM [inhibitor, single point].
`Cc1ccc(NC(=O)Cn2cc(C(=O)c3cccs3)c3ccccc32)cc1C` was tested, and the max response, negative = inhibition was inactive: -20.4%.
`Cc1ccc(C(=O)c2cn(Cc3cccc(F)c3)c3nc(C)ccc3c2=O)cc1` was tested, and the Potency was inconclusive: 25.1 µM [inhibitor, partial curve, poor fit].
With `O=C1c2c(O)cccc2Cc2cccc(O)c21` the Potency was inconclusive: 7.94 µM [inhibitor, partial curve] and inconclusive: 794 nM [inhibitor, full curve].
